# Results from PMC4336329 (PLoS ONE, 2015).
# The campaign covered roughly 310,000 compounds. About 2,200 (0.71%) showed an effect of 50% or more. The effect is printed as a negative number. Some of the results follow.
# Target: human ether-à-go-go-related gene (hERG) potassium channel (human, UniProt Q12809)
# Experiment: primary screen, population patch clamp on CHO cells stably expressing hERG
# Sequence of human ether-à-go-go-related gene (hERG) potassium channel (Q12809 whole entry, looked up): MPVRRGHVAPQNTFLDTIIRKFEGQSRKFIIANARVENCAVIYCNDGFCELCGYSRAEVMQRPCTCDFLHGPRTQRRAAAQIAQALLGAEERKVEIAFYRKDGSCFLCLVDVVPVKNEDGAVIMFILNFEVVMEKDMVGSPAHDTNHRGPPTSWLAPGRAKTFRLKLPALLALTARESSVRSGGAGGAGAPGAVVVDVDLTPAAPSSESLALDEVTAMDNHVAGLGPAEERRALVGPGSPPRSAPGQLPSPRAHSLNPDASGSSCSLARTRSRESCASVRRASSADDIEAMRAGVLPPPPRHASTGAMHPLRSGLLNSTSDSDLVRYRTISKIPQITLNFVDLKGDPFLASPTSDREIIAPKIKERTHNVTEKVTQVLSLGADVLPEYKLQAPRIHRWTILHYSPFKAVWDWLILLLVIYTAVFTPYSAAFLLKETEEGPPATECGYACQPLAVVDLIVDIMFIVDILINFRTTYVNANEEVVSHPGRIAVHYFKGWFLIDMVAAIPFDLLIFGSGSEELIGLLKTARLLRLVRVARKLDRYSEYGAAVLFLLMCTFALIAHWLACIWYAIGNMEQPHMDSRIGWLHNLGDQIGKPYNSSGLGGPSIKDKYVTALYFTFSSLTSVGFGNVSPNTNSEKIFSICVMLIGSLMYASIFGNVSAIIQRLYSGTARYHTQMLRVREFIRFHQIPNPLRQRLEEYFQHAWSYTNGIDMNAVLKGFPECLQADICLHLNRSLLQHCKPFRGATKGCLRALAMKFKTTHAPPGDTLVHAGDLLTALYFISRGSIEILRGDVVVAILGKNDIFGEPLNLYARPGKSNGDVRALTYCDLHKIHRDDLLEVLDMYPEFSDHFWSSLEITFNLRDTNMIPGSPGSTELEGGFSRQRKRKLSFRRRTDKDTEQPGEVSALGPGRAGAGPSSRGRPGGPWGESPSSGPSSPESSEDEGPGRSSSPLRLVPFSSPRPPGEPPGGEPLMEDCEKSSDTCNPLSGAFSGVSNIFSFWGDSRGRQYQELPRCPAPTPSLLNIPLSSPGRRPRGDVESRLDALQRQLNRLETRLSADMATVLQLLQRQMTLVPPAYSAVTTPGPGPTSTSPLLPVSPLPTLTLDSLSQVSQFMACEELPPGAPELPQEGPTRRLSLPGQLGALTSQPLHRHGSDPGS
row,SMILES,"hERG current change (%, negative = inhibition) at 1uM [%]"
1,CCOC(=O)NC(c1ccccc1)C1CCCCC1=O (stereo not shown),9.1
2,CC(NC(=O)C(c1ccccc1)c1ccccc1)C(=O)N1CCCCC1 (stereo not shown),3.85
3,C[C@@H](C(O)c1ccccc1)N(C)C(=O)CCc1ccccc1 (stereo partly shown),-0.658
4,COCCN(CCOC)C(=O)c1ccc(CSc2nc3ccccc3s2)cc1,1.94
5,O=C(NCCN1CCOCC1)c1ccc(-c2ccccc2)cc1,1.65
6,Cc1cc2c(C)ccc(C)c2nc1SCC(=O)c1cccs1,19.6
7,CCN(Cc1ccncc1)C(=O)C1CCN(S(=O)(=O)c2cccs2)CC1,9.02
8,CCN(Cc1ccccc1)C(=O)c1cc(S(=O)(=O)N2CCOCC2)ccc1N1CCCC1,3.38
9,CCCCC1C2=C(CCCC2=O)OC2=C1C(=O)CCC2,-1.95
10,O=C(Nc1cccc(NC(=O)c2cccs2)c1)c1ccc(Br)o1,5.96
11,CCOc1ccc(C(=O)Nc2cc(C)on2)cc1,11.3
12,CCC(C)c1ccc(NC(=O)Nc2cnccn2)cc1 (stereo not shown),7.59
13,Cc1ccc(C(=O)N2CCC3(CC2)NCCc2[nH]cnc23)cc1C,9
14,CC(OC(=O)c1ccc(F)c(S(=O)(=O)N2CCOCC2)c1)C(=O)NCC1CCCCC1 (stereo not shown),14.6
15,Cc1ccc(-n2nc(C)c(/C=N/NC(=O)c3cccs3)c2Cl)cc1,7.56
16,CCCCCCCC(=O)N1c2ccccc2NC(=O)C1CC(=O)Nc1ccc(C(=O)O)cc1 (stereo not shown),11.4
17,COc1ccc(NS(=O)(=O)c2cc(OC)ccc2NC(=O)c2cc(C)oc2C)cc1,5.1
18,COc1ccc2c(OC)c3ccoc3nc2c1OC,10.9
19,Cc1ccc(C(=O)N/N=C/c2cc(Br)ccc2O)cn1,9.5
20,Cc1ccc(NC(=O)CCNC(=O)c2ccc([N+](=O)[O-])cc2)cc1S(=O)(=O)N(C)C,-10.4
21,Cc1ccc2cc(CN(CCN3CCCC3)C(=O)Nc3ccccc3)c(=O)[nH]c2c1C,1.66
22,COc1ccc(CCN(C)CC(=O)Nc2cc(C)nc3ccccc23)cc1OC.O=C(O)C(=O)O,13

row,SMILES,"hERG current change (%, negative = inhibition) at 1uM [%]"
1,C=CCNC(=O)NC(=O)COC(=O)CC(NC(N)=O)c1ccc(Cl)cc1 (stereo not shown),2.04
2,COc1ccccc1CCNS(=O)(=O)c1cn(C)nc1C,5.43
3,COc1ccc(Nc2nc(N)c([N+](=O)[O-])c(NCc3ccccc3)n2)cc1,8.62
4,CCN1CCN(c2nc(-c3cccnc3)nc3ccccc23)CC1.Cl,-18.4
5,O=C(Nc1cc(F)ccc1F)C1CCCN1S(=O)(=O)c1cccc2nsnc12 (stereo not shown),8.38
6,CC1(C)CC(NC(=O)c2sc3cc(Cl)ccc3c2Cl)CC(C)(C)N1,5.23
7,Cc1ccc(-n2[nH]c(C)c(C=Nc3ccc(S(=O)(=O)N4CCOCC4)cc3)c2=O)c(C)c1,0.57
8,Clc1ccc(-c2cc(-c3ccccc3)on2)cc1,11.9
9,COc1ccc(/C(O)=C2/C(=O)C(=O)N(CCN3CCNCC3)C2c2cccc([N+](=O)[O-])c2)cc1 (stereo not shown),20.2
10,Cc1ccc(C(=O)NCC(=O)O)cc1S(=O)(=O)N1CCCCC1,13.9
11,O=S(=O)(c1ccc(Cl)cc1)N1CN(CC2CCCO2)c2nc3ccccc3nc21 (stereo not shown),10.1
12,COc1ccc(N=Cc2ccc(CNS(=O)(=O)c3ccc(Cl)cc3)o2)cc1,11.4
13,Cc1cn(CC2COC(C)(C)O2)c(=O)[nH]c1=O (stereo not shown),17.5
14,Cc1ccccc1S(=O)(=O)N1[C@@H](c2ccccc2)C(C(=O)O)=CC[C@H]1c1ccc(Cl)cc1,17.9
15,COc1ccccc1N(Cc1cc2ccc(C)cc2[nH]c1=O)C(C)=O,4.55
16,Cc1nc2ccc3nc(NC(=O)c4ccc5c(c4)OCCO5)sc3c2s1,9.46
17,O=C1Nc2ccccc2O/C1=C\c1ccccc1,13.4
18,Cc1ccc(C)c(OCC(=O)N2CCc3ccccc3C2)c1,9.13
19,CC(C)(C)c1ccc(C(=O)NCC(=O)OCC(=O)N2CCN(S(=O)(=O)c3ccc(Cl)cc3)CC2)cc1,16
20,CN(C)C(CNC(=O)c1ccc(C2SCCS2)cc1)c1ccccc1 (stereo not shown),15.8
21,COc1cccc(N2C(=O)C(Cc3c[nH]c4ccccc34)NC2=S)c1 (stereo not shown),16.7
22,Cc1cccc(NS(=O)(=O)c2ccccc2)n1,-5.76

row,SMILES,"hERG current change (%, negative = inhibition) at 1uM [%]"
1,O=c1[nH]c(O)c(C=Nc2ccccc2[N+](=O)[O-])c(=O)[nH]1,11.2
2,CC(=O)OCC(=O)C1(O)CCC2C3CCC4=CC(=O)C=CC4(C)C3C(O)CC21C (stereo not shown),8.87
3,COc1ccc(C(=O)Nn2c(SCc3cccc([N+](=O)[O-])c3)nc3ccccc3c2=O)cc1,16.6
4,CC(=O)Nc1ccc(NC(=O)C(=O)NCC(c2ccco2)N2CCc3ccccc32)cc1 (stereo not shown),0.613
5,COC(=O)c1cc(OC)c(OC)cc1NC(=O)C1CCC(=O)N1S(=O)(=O)c1ccc(C)cc1 (stereo not shown),15.3
6,Cc1ccc(C(=O)N(C)CC(=O)Nc2cccc(F)c2)cc1S(=O)(=O)N1CCCCC1,7.39
7,Cc1c(/C=N/n2cnnc2)c2ccccc2n1CCOc1ccc(Cl)cc1,4.48
8,COCCN1CCn2c(nc3cc(NS(C)(=O)=O)ccc32)C1,1.93
9,CCC(=O)c1ccc(OCC(O)CNC(C)c2ccccc2)cc1 (stereo not shown),14.1
10,CC(=O)O[C@@H]1[C@@H](OC(C)=O)[C@H](n2ccc3cc([N+](=O)[O-])ccc32)OC[C@@H]1OC(C)=O,5.46
11,CCOc1cc(N2CCOCC2)c(OCC)cc1NC(=O)CN1C(=O)NC2(CCCCC2)C1=O,-6.94
12,Cc1cc(Cl)c(OCCOCCN2CCN(C)CC2)c(Br)c1.O=C(O)C(=O)O,14.3
13,CCC(C)N(CCNC(=O)c1ccc(NC2=NC3CS(=O)(=O)CC3S2)cc1)Cc1ccco1 (stereo not shown),-7.91
14,S=c1[nH]c2ncccc2o1,-18.9
15,CCOc1ccc(OC(=O)c2ccc3c(=O)n4c(nc3c2)CCC4)cc1,4.54
16,COc1ccc(-c2nnn(CC(=O)N(CCN3CCOCC3)C(C(=O)NC3CCCC3)c3ccco3)n2)cc1 (stereo not shown),-1.93
17,CC(=O)NCCC1CCN(C(=O)C2CCC(=O)N(C3CCCC3)C2)CC1 (stereo not shown),14.9
18,Nc1c(-c2ccccc2)c(CSc2nc3ccccc3[nH]2)nn1-c1cccc(Cl)c1,9.65
19,COc1ccc(OCCNC(=O)/C=C/c2ccc([N+](=O)[O-])cc2)cc1,-59.9
20,COc1ccc(CCNC(=O)Cn2cccc2C(=O)c2ccccc2)cc1OC,16
21,COC(=O)[C@]1(C)CCC[C@@]2(C)C3CC[C@@]4(C)C[C@]3(CCC21)CC4=NO (stereo partly shown),-2.03
22,Cc1ccc(C(=O)Nc2nnc(-c3ccncc3)o2)cc1,-0.2

row,SMILES,"hERG current change (%, negative = inhibition) at 1uM [%]"
1,CCc1noc(C)c1C(=O)N1CCN(S(=O)(=O)c2ccc(Br)cc2Cl)CC1,6.27
2,CC(NC(=O)c1cc(S(=O)(=O)N2CCOCC2)ccc1N1CCCC1)c1ccc(Cl)c(Cl)c1 (stereo not shown),9.83
3,O=C(Nc1ccnn1C1CCN(Cc2cccc(OCCO)c2)CC1)C1CCOC1 (stereo not shown),2.06
4,COc1cc(Cl)ccc1NC(=S)N(CCCN1CCOCC1)Cc1cn(C)c2ccccc12,4.08
5,Cc1ccc(S(=O)(=O)N2CCCCC2)cc1NC(=O)Nc1ccc(Cl)cc1Cl,13.2
6,Cc1ccc(C)c(C2C(=O)c3ccccc3C2=O)c1,-0.022
7,COCc1n[nH]c(=S)n1-c1ccccc1,12.1
8,CCc1nn(C(CC)C(=O)NCc2cccs2)c(=O)c2cc3occc3n12 (stereo not shown),4.67
9,CCN(CC(=O)Nc1cc(Cl)ccc1C)C(=O)c1ccc2c(c1)NC(=O)C(C)S2 (stereo not shown),-1.02
10,O=C(O)CCCN1C(=O)C(=O)/C(=C(/O)c2ccccc2)C1/C=C/c1ccccc1 (stereo not shown),1.2
11,O=C(N/C(=C/c1ccc(Br)cc1)C(=O)N1CCOCC1)c1cccs1,7.16
12,Cc1ccc(C(=O)N/C(=C/c2ccco2)C(=O)Nc2cccc(C(=O)O)c2)cc1,14
13,Cc1cccc(NC(=O)Cn2cnc(S(=O)(=O)N3CCCC3)c2)c1C,13.8
14,CC1CCN(C(=O)C2CC(c3ccc(F)cc3)=NO2)CC1 (stereo not shown),-5.77
15,Cc1ccc(NC2=NCC(=O)N2C2CCCC2)cc1C.Cl,17.4
16,COc1ccc(C(=O)c2ccc(Br)cc2)c2ccccc12,0.857
17,NC(=O)C[n+]1cccc(CNC(=O)c2ccc(OC(F)F)cc2)c1.[Cl-],4.72
18,O=C(CSc1nnc(-c2cccnc2)n1C1CCCCC1)NC1CCCCC1,-6.66
19,O=C(C1CCC1)N1CCN(c2ccc(Cl)cc2)CC1,6.35
